From PubChem BioAssay AID1508623 (National Center for Advancing Translational Sciences (NCATS), 2021)
Screen size: about 48,000 compounds; about 450 (0.94%) were called active. Roughly 19% stayed inconclusive and do not appear here. The call rests on the fitted dose curve; in most records, active means well fitted inhibition curve with a large enough effect; inconclusive means small, poorly fitted or top-dose-only effect; inactive means no such curve, though single readings can be large or run the other way. The list shows a part of the results.

Assay: Primary qHTS for Identification of Small Molecule Inhibitors of Huntingtin Promoter Activity; further: nearly all actives have a fitted effect of over 50% in size
Details: HEK293 HTT promoter firefly luciferase reporter (activity 0% = vehicle and -100% = no light), 24 h; series mostly up to 57.5 µM; activity change, negative = inhibition: at the top concentration
Procedure, shortened: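 HEK293 cells carrying firefly luciferase reporters were seeded at 2,500 per well in Opti-MEM and cultured for 24 h. They were then treated with compounds at up to 57.5 uM final for 24 h at 37 degrees C before Dual-Glo luminescence readout.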
Potency means the concentration at half of the fitted maximal effect.

SMILES | activity change, negative = inhibition | Potency
COc1ccc(CCNc2ncnc3c2nnn3C)cc1OC | inactive: -26.2% | 
CCc1ccc(NC(=O)CSc2nc(-c3ccccc3)no2)cc1 | inactive: 21.3% | 
COc1ccccc1Cn1ccn(CC(=O)Nc2c(C)cc(C)cc2C)c(=O)c1=O | inactive: -25.5% | 
CC(C)C(=O)NC1CC(=O)N(c2ccc3c(c2)OCCO3)C1 (stereo not drawn) | inactive: 12.5% | 
Cc1nnc(N2CCN(c3ccc(Cl)cc3)CC2)c2c1nnn2Cc1ccc(F)cc1 | inactive: -11.5% | 
COc1cccc(C(c2sc3nc(-c4ccco4)nn3c2O)N2CCCC2)c1 (stereo not drawn) | inactive: 16.5% | 
COc1ccc(NC(=O)c2c(NCc3cccs3)sc3c2CCCCC3)cc1 | inactive: 7.79% | 
Cc1c(C(=O)Nc2cccc(F)c2)sc2nc(-c3cc4ccccc4oc3=O)[nH]c(=O)c12 | inactive: 0.0638% | 
Cc1ccc(-n2nc(C)c3c(C)cc(=O)n(CC(=O)Nc4ccc(C(C)C)cc4)c32)cc1 | inactive: -7.95% | 
CCc1ccc(NC(=O)C(=O)NCCc2sc(-c3ccc(OC)c(OC)c3)nc2C)cc1 | inactive: 4.33% | 
CC1CCCCN1C(=O)c1ccc2c(c1)N(Cc1ccc(Cl)cc1)C(=O)c1ccccc1S2=O (stereo not drawn) | inactive: -33.7% | 
CCOC(=O)c1[nH]c2ccccc2c1NC(=O)c1c(F)cccc1F | inactive: -3.62% | 
O=C(NCc1ccccc1Cl)c1ccc2c(c1)N(Cc1ccccc1)C(=O)c1ccccc1S2 | inactive: -12.6% | 
CCOC(=O)c1sc2ncn(CC(=O)Nc3cccc(C)c3)c(=O)c2c1C | inactive: -6.54% | 
CCc1cccc(NC(=O)c2cc(-c3ccccc3)n[nH]2)c1 | inactive: 11% | 
O=C(Nc1cccc(Cl)c1)C1CCN(c2nc3ccccc3nc2C(F)(F)F)CC1 | inactive: -5.62% | 
Cc1cc(OC(C)C(=O)N2CCN(CCc3ccccn3)CC2)ccc1Cl (stereo not drawn) | inactive: -17.9% | 
Cc1c(F)cccc1NS(=O)(=O)c1cccs1 | inactive: -17.7% | 
CCC(CC)C(=O)Nc1ccc(OCc2cc(=O)n3ccc(C)cc3n2)cc1 | inactive: -6.37% | 
CCOc1ccccc1N1CC(c2nc3ccccc3n2CCCOc2ccccc2)CC1=O (stereo not drawn) | inactive: -30% | 
CCOc1ccccc1C(N)=O | inactive: 7.97% | 
COc1ccc(C(C(=O)Nc2ccc(C(C)C)cc2)N(C)C(=O)Cc2cccs2)cc1 (stereo not drawn) | inactive: -20.2% | 
COc1ccc(S(=O)(=O)NC(C)C)cc1-n1cnnn1 | inactive: -14.3% | 
O=C(Nc1ccc(OC(F)(F)F)cc1)C1CCCN(S(=O)(=O)c2ccc(Br)s2)C1 (stereo not drawn) | inactive: -6.49% | 
O=C(Cc1csc2ccccc12)NCc1ccc(F)cc1 | inactive: 54.1% | 

SMILES | activity change, negative = inhibition | Potency
CC(C)(C)c1ccc(C(=O)Nc2nc3nc(-c4ccccc4)cc(=O)n3[nH]2)cc1 | inactive: -20.4% | 
Cc1ccc(NC(=O)Cn2c(SCc3cccc(F)c3)nc3ccncc32)c(C)c1 | inactive: -18.3% | 
C#CC(C)(CC)NC(=O)Cn1nnc(-c2ccc(OCc3ccccc3Cl)cc2)n1 (stereo not drawn) | inactive: -33.7% | 
COc1ccc(Br)cc1CNC(=O)CN1C(=O)CCCc2ccccc21 | inactive: -11% | 
Cc1ccc2oc(C(=O)Nc3nc(-c4ccc(F)cc4)ns3)c(C)c2c1 | inactive: 1.66% | 
CCc1ccc(C(=O)c2cn(CC(=O)Nc3ccc4c(c3)OCCO4)c3ccc(CC)cc3c2=O)cc1 | inactive: -15.1% | 
COc1cccc(NC(=O)CSC2=Nc3ccccc3C3=NC(CC(=O)NCc4cccs4)C(=O)N23)c1 (stereo not drawn) | inactive: -6.08% | 
COc1ccc(C2c3c(oc4cc(C)cc(C)c4c3=O)C(=O)N2Cc2ccco2)cc1OC (stereo not drawn) | inactive: 0.345% | 
Cc1cccc(N2CCN(C(=O)c3cc4c(=O)[nH]c5ccc(C)cc5c4s3)CC2C)c1 (stereo not drawn) |  | active: 12.6 µM
COc1ccc(Cn2c(CNC(=O)Cc3cccc([N+](=O)[O-])c3)nc3cccnc32)cc1 | inactive: -4.36% | 
CC(=O)N1CCN(c2nc3c(F)cc(F)cc3s2)CC1 | inactive: 42.6% | 
Cc1cc(C)cc(NC(=O)c2sc3nc[nH]c(=O)c3c2C)c1 | inactive: 14.6% | 
CCOC(=O)Cn1c(=O)n(CC2CCCO2)c2nc(-c3ccccc3Cl)nc(C(N)=O)c21 (stereo not drawn) | inactive: -11% | 
CCOC(=O)c1ccc(CN(Cc2ccc(OC)cc2)S(=O)(=O)c2cccc(C(F)(F)F)c2)cc1 | inactive: 0.902% | 
COc1ccccc1C(=O)Nc1c(C(=O)c2ccccc2)oc2ccccc12 | inactive: -8.94% | 
CCOc1ccc(N(CC)C(=O)c2noc3c2COc2ccc(C)cc2-3)cc1 | inactive: -20.3% | 
O=c1c(N2CCc3ccccc3C2)csc2ccc(F)cc12 | inactive: 20.6% | 
CC1=C(C(=O)Nc2ccccc2C)C(c2cccs2)n2nc(SCc3cc(C)ccc3C)nc2N1 (stereo not drawn) | inactive: -7.78% | 
CCOc1ccccc1NC(=O)C1=C(C)Nc2ncnn2C1c1sccc1C (stereo not drawn) | inactive: -13.7% | 
O=C(CCCn1c(=O)c2cccn2c2cccnc21)Nc1ccccc1C(F)(F)F | inactive: -0.791% | 
CCn1c(CN2CCCCC2)nc2cc(NC(=O)COc3ccccc3C(C)(C)C)ccc21 | inactive: -34.7% | 
Cc1coc2c1c(C)cc1oc(=O)c(CC(=O)NCCc3ccc(Cl)cc3)c(C)c12 | inactive: -3.05% | 
Cc1ccc(NC(=O)C(=O)NCC(c2cccnc2)N2CCN(C)CC2)cc1 (stereo not drawn) | inactive: 0.422% | 
O=C(NCCc1ccc(Cl)cc1)C(=O)NCC(c1ccco1)S(=O)(=O)c1ccccc1 (stereo not drawn) | inactive: -24.6% | 
CCn1c2c(c(=O)n3ncc(C(=O)Nc4ccc(C(=O)OC)cc4)c13)CN(Cc1ccc(OC)cc1)CC2 | inactive: 11.3% | 

SMILES | activity change, negative = inhibition | Potency
COc1ccc(CCNC(=O)c2c(O)nc3c(C)cccn3c2=O)cc1OC | inactive: -4.44% | 
COc1ccc(NC(=O)c2c(N)c(C(=O)c3ccc(OC)cc3)n3ccccc23)cc1 | inactive: -22.6% | 
CCn1c2ccccc2c2cc(CN3CCN(Cc4ccc(OC)c(OC)c4)CC3)ccc21 | inactive: -20.1% | 
CCOc1ccc(CC(=O)NCCS(=O)(=O)N2CCN(c3ccc(OC)cc3)CC2)cc1 | inactive: -29.8% | 
Cc1ccc(N(Cc2cccs2)C(=O)c2ccco2)cc1 | inactive: -14.6% | 
Nc1nn(-c2ccccc2)nc1C(=O)OCc1c(F)cccc1Cl | inactive: 40.3% | 
COc1cc(Nc2nc(SCC(=O)c3ccc(Cl)c(Cl)c3)nc3ccccc23)cc(OC)c1 | inactive: -23.7% | 
O=C(CCC1N=C2c3ccccc3N=C(SCC(=O)Nc3ccc(F)cc3)N2C1=O)NCc1ccco1 (stereo not drawn) | inactive: -2.94% | 
CC(C)N(C(=O)Cn1cc(S(=O)(=O)Cc2ccc(Cl)cc2)c2ccccc21)C(C)C | inactive: -18.4% | 
COc1ccc(-n2c(SCC(=O)NCc3ccccc3)nc3c([nH]c4ccccc43)c2=O)cc1 | inactive: -15.6% | 
COc1ccc(Nc2nn(-c3ccc(OC(F)(F)F)cc3)nc2C(C)=O)cc1 | inactive: 1.8% | 
Cc1cc(C(=O)NCc2ccccc2)c2c(C)nn(-c3cccc(F)c3)c2n1 | inactive: -38.1% | 
COc1ccc(NC(=O)CC2Nc3ccccc3NC2=O)cc1 (stereo not drawn) | inactive: 11.5% | 
COc1cc(OC)c(NC(=O)N2CCC(CN3CCCC3)CC2)cc1Cl | inactive: -17.1% | 
CCOC(=O)c1ccc(Nc2nn3c(=O)c4ccccc4nc3s2)cc1 | inactive: 0.979% | 
COc1ccc(OC)c(NC(=O)c2ccc3c(Cl)c4c(nc3c2)CCCC4)c1 | inactive: -5.57% | 
CCCCN(C)C(=O)Cn1cnc2sc(C)c(S(=O)(=O)N3CCC(C)CC3)c2c1=O | inactive: -21.9% | 
Cc1nn(-c2ccccc2)c2c1N(CC(=O)N1CCN(c3ccccc3F)CC1)C(=O)CS2 | inactive: -20.1% | 
CCN(CC)c1ccc(C2Nc3ccccc3-c3cc(C)nn32)cc1 (stereo not drawn) | inactive: -11.4% | 
CCCCN(CCCNC(=O)c1cc(Nc2ccccc2OC)nc2ccccc12)c1ccccc1 | inactive: -10.6% | 
COc1ccc(CNC(=O)c2cccn2-c2nnc(N3CCCC3)s2)c(OC)c1 | inactive: -22.3% | 
COc1ccc(NC(=O)c2oc3ccccc3c2NC(=O)C2CCCCC2)c(OC)c1 | inactive: -8.83% | 
Cc1cccc(-n2c(=O)c3c4c(sc3n3c(C)nnc23)CCCC4)c1 | inactive: -12.4% | 
Nc1c(C(=O)Nc2ccccc2)sc2nc3c(cc12)CN(Cc1ccccc1)CC3 | inactive: -3.73% | 
CCCCN(C)C(=O)c1ccc2c(c1)N(Cc1cccc(F)c1)C(=O)c1ccccc1S2 | inactive: -5.93% | 

SMILES | activity change, negative = inhibition | Potency
CCOc1cc(C#N)c(-n2nnc3c(sc4nc(C)cc(C)c43)c2=O)cc1OCC | inactive: -2.63% | 
NS(=O)(=O)c1ccc(C(=O)O)cc1 | inactive: 9.38% | 
Cc1cc(C)c(/C=C/c2onc(C)c2S(=O)(=O)N2CCC(C(=O)NCCc3ccccc3)CC2)c(C)c1 | inactive: -23% | 
O=C(Cn1c(=O)c2cccn2c2ccccc21)NCc1ccccc1F | inactive: 1.07% | 
COC(=O)c1ccc(NC(=O)Cn2cnc3c2c(=O)n(C)c(=O)n3C)cc1 | inactive: -2.2% | 
CCc1cccc(C)c1NC(=O)C1CCCN1S(=O)(=O)c1cccc2nsnc12 (stereo not drawn) | inactive: -16.2% | 
Cc1ccc(C(=O)c2cn(Cc3ccccc3)c3nc(C)ccc3c2=O)cc1 | inactive: -11.5% | 
CCn1c(=O)c(=O)n(CC)c2cc(S(=O)(=O)Nc3ccc(C)cc3)ccc21 | inactive: -12.7% | 
COc1cc(OC)c(NC(=O)c2cc3c(=O)oc4ccc(C)cc4c3s2)cc1Cl | inactive: -16.4% | 
Cc1ccc(-n2ncc3c(NCCO)ncnc32)cc1Cl | inactive: 61.9% | 
Cc1cc(NC(=O)c2cc(-c3ccc(Cl)cc3)on2)n(-c2ccccc2)n1 | inactive: 1.69% | 
CCOc1ccc(NC(=O)Cn2c(=O)n(-c3cccc(Cl)c3)c(=O)c3c2c2cc(C)ccc2n3C)cc1 | inactive: -5.89% | 
CCOc1cccc(C2c3[nH]c4ccccc4c3CCN2C(=O)CSc2ccccc2)c1 (stereo not drawn) | inactive: -29.9% | 
Cc1cccc(C(=O)N2CCc3cc(CNC(=O)COc4ccc(Cl)cc4)ccc32)c1 | inactive: -26.4% | 
Cc1ccccc1Nc1c(-c2ccc(Cl)cc2)nc2c(C)cccn12 | inactive: -3.14% | 
COc1ccc(NC(=O)Cn2c(=O)n(CCc3ccccc3)c(=O)c3c4c(sc32)CCCC4)cc1 | inactive: -3.04% | 
CCOC(=O)c1c(NC(=O)c2nc(SCC)ncc2Cl)sc2c1CCCC2 | inactive: 6.49% | 
COc1cc2c(=O)c(C(=O)c3ccc(C)c(C)c3)cn(Cc3ccc(F)cc3)c2cc1OC | inactive: 2.15% | 
CCOc1ccccc1NC(=O)c1ccc2c(c1)CCN2S(=O)(=O)c1ccc(C)cc1 | inactive: -2.91% | 
Cc1nc(SCC(=O)Nc2ccccc2C)cc(-c2ccccc2)n1 | inactive: -1.77% | 
CCSc1nnc2c(n1)OC(c1cc(OC)c(OC)c(OC)c1)Nc1ccccc1-2 (stereo not drawn) | inactive: -3.77% | 
CCOC(=O)c1c(C)[nH]c(C)c1S(=O)(=O)NCC(=O)Nc1ccc(C)c(N(C)C)c1 | inactive: -9.54% | 
CCOc1cc(CNC(=O)Cn2c(=O)c3cccn3c3ccc(F)cc32)cc(OCC)c1OCC | inactive: -14.1% | 
